# Read-outs that look alike come from different tables or passages of the source. At least one peptide structure holds a part that was inferred or is arguable (an end, a ring closure or a residue).
# Assays:
# Format in all cases: cell-based
# Escherichia coli = test system: Escherichia coli
# Description: Bactocasitone (manufactured by Difco Laboratory Co.) was dissolved at a concentration of 1% in purified water, the pH was adjusted to 7.0 with 1M sodium hydroxide, the solution was sterilized at 115° C. for 15 minutes and a basal medium (liquid medium) was prepared. Each sample was dissolved at a concentration of […] in purified water, sterilization was performed by using a sterilization filter (manufactured by […] Co.) and test media, prepared by adding samples at concentrations of 1, 5, 10, 50 and 100 ppm to the basal medium, as well as a control medium with no added samples, were prepared. […] wherein A is the difference in turbidity of the test culture medium (the difference between the turbidity of the test culture medium after 16 hours of culture and the turbidity of the test culture medium before the culturing) and B is the turbidity of the control medium (the difference between the turbidity of the control culture medium after 16 hours of culture and the turbidity of the control culture medium before the culturing). The percentages of the rate of inhibition of proliferation are not in weight (same hereinafter).
# [1] = test system: gram-positive bacteria and gram-negative bacteria including aerobic and anaerobic bacteria and yeast; experiment: Survival of various microorganisms after 60 minutes (Experiment 13), overall; conditions: 31 μg/ml within 60 minutes
# [2] = test system: Corynebacterium renale JCM-1322; experiment: MIC in liquid medium (Experiment 12); conditions: culture at 30° C.
# [3] = test system: Corynebacterium diphtheriae JCM-1310; experiment: MIC in liquid medium (Experiment 12); conditions: 37° C.
# [4] = test system: Staphylococcus aureus JCM-2413; experiment: MIC in liquid medium (Experiment 12); conditions: 37° C.
# [5] = test system: Staphylococcus aureus JCM-2179; experiment: MIC in liquid medium (Experiment 12); conditions: 37° C.
# [6] = test system: Staphylococcus aureus JCM-2151; experiment: MIC in liquid medium (Experiment 12); conditions: 37° C.
# [7] = test system: Staphylococcus hominus JCM-2419T; experiment: MIC in liquid medium (Experiment 12); conditions: 37° C.
# [8] = test system: Staphylococcus epidermidis JCM-2414T; experiment: MIC in liquid medium (Experiment 12); conditions: 37° C.
# [9] = test system: Clostridium paraputrificum MMI-25; experiment: MIC in liquid medium (Experiment 12); conditions: PYG medium, anaerobic (85% nitrogen, 10% carbon dioxide, 5% hydrogen)
# Bacillus natto IFO-3009 = experiment: MIC in liquid medium (Experiment 12); conditions: 37° C.
# Bacillus cereus MMI-272 = experiment: MIC in liquid medium (Experiment 12); conditions: 37° C.
# [10] = test system: Streptococcus lactis ATCC-19435; experiment: MIC in liquid medium (Experiment 12); conditions: PYG medium, 37° C.
# [11] = test system: Streptococcus bovis JCM-5672; experiment: MIC in liquid medium (Experiment 12); conditions: 37° C.
# Escherichia coli IID-861 = experiment: MIC in liquid medium (Experiment 12); conditions: 37° C.
# [12] = test system: Klebsiella pneumoniae JCM-1662T; experiment: MIC in liquid medium (Experiment 12); conditions: culture at 30° C.
# [13] = test system: Pseudomonas aeruginosa MMI-603; experiment: MIC in liquid medium (Experiment 12); conditions: 37° C.
# [14] = test system: Pseudomonas aeruginosa IFO-3452; experiment: MIC in liquid medium (Experiment 12); conditions: 37° C.
# [15] = test system: Pseudomonas fluorescens IFO-141602; experiment: MIC in liquid medium (Experiment 12); conditions: for Minimum Inhibitory Concentration: culture at 30° C.
# [16] = test system: Candida albicans JCM-2900; experiment: MIC in liquid medium (Experiment 12); conditions: culture at 30° C.
# [17] = test system: Aspergillus fumigalus JCM1739; experiment: MIC against fungus, growth of hyphae (Experiment 14); conditions: for Minimum Inhibitory Concentration: Aspergillus fumigalus JCM1739, no growth of hyphae after 20 hours
# Rhizopus oryzae JCM5557 = experiment: as above; conditions: for Minimum Inhibitory Concentration: Rhizopus oryzae JCM5557, no growth of hyphae after 20 hours
# [18] = test system: Bacillus circulans JCM-2504T; experiment: Survival after 60 min with peptide (Experiment 13); conditions: peptide 31 μg/ml, PYG medium, 30° C.
# [19] = test system: Streptococcus lactis ATCC-19435; experiment: Survival after 60 min with peptide (Experiment 13); conditions: peptide 31 μg/ml, PYG medium, 30° C.
# [20] = test system: Staphylococcus aureus JCM-2179; experiment: Survival after 60 min with peptide (Experiment 13); conditions: peptide 31 μg/ml, PYG medium, 30° C.
# [21] = test system: Staphylococcus haemolyticus JCM-2416T; experiment: Survival after 60 min with peptide (Experiment 13); conditions: peptide 31 μg/ml, PYG medium, 30° C.
# [22] = test system: Bifidobacterium adolescens ATCC-15703; experiment: Survival after 60 min with peptide (Experiment 13); conditions: peptide 31 μg/ml, PYG medium, anaerobic, 37° C.
# [23] = test system: Escherichia coli MMI-0111; experiment: Survival after 60 min with peptide (Experiment 13); conditions: peptide 31 μg/ml, PYG medium, 30° C.
# [24] = test system: Salmonella enteriditis IID-604; experiment: Survival after 60 min with peptide (Experiment 13); conditions: peptide 31 μg/ml, PYG medium, 30° C.
# [25] = test system: Proteus vulgaris JCM-1668T; experiment: Survival after 60 min with peptide (Experiment 13); conditions: peptide 31 μg/ml, PYG medium, 30° C.
# [26] = test system: Klebsiella pneumoniae JCM-1662T; experiment: Survival after 60 min with peptide (Experiment 13); conditions: peptide 31 μg/ml, PYG medium, 30° C.
# [27] = test system: Pseudomonas aeruginosa IFO-3452; experiment: Survival after 60 min with peptide (Experiment 13); conditions: peptide 31 μg/ml, PYG medium, 30° C.
# [28] = test system: Bacteroides distasonis MMI-M602; experiment: Survival after 60 min with peptide (Experiment 13); conditions: peptide 31 μg/ml, PYG medium, anaerobic, 37° C.
compound,measurement,setting,value
CC[C@H](C)[C@@H]1NC(=O)[C@H](CO)NC(=O)[C@@H]2CCCN2C(=O)[C@H](C)NC(=O)CNC(=O)[C@H](CC(C)C)NC(=O)[C@H](CCCCN)NC(=O)[C@H](CCCCN)NC(=O)[C@H](CCSC)NC(=O)[C@H](CCCNC(=N)N)NC(=O)[C@H](Cc2c[nH]c3ccccc23)NC(=O)[C@H](CCC(N)=O)NC(=O)[C@H](Cc2c[nH]c3ccccc23)NC(=O)[C@H](CCCNC(=N)N)NC(=O)[C@H](CCCNC(=N)N)NC(=O)[C@@H](NC(=O)[C@H](CCCCN)NC(=O)[C@@H](N)Cc2ccccc2)CSSC[C@@H](C(=O)N[C@H](C(=O)N[C@@H](CCCNC(=N)N)C(=O)N[C@@H](CCCNC(=N)N)C(=O)N[C@@H](C)C(=O)N[C@@H](Cc2ccccc2)C(=O)O)C(C)C)NC(=O)[C@H]([C@@H](C)O)NC1=O [antimicrobial peptide of Example 1],inhibitory rate (rate of inhibition of E. coli proliferation),Escherichia coli; added quantity 1 ppm,6%
same,inhibitory rate (rate of inhibition of E. coli proliferation),Escherichia coli; added quantity 5 ppm,100%
same,inhibitory rate (rate of inhibition of E. coli proliferation),Escherichia coli; added quantity 10 ppm,100%
same,inhibitory rate (rate of inhibition of E. coli proliferation),Escherichia coli; added quantity 50 ppm,100%
same,inhibitory rate (rate of inhibition of E. coli proliferation),Escherichia coli; added quantity 100 ppm,100%
same,antimicrobial effect (in words),Escherichia coli; at a concentration of 5 ppm,antimicrobial effect
same,colony formation capacity of the microorganisms,[1],complete loss of colony formation capacity
same,Minimum Inhibitory Concentration,[2]; PYG medium,1 µg/mL
same,Minimum Inhibitory Concentration,[2]; Peptone medium,0.6 µg/mL
same,Minimum Inhibitory Concentration,[3]; PYG medium,18 µg/mL
same,Minimum Inhibitory Concentration,[3]; Peptone medium,6 µg/mL
same,Minimum Inhibitory Concentration,[4]; PYG medium,18 µg/mL
same,Minimum Inhibitory Concentration,[4]; Peptone medium,6 µg/mL
same,Minimum Inhibitory Concentration,[5]; PYG medium,6 µg/mL
same,Minimum Inhibitory Concentration,[5]; Peptone medium,3 µg/mL
same,Minimum Inhibitory Concentration,[6]; PYG medium,6 µg/mL
same,Minimum Inhibitory Concentration,[6]; Peptone medium,3 µg/mL
same,Minimum Inhibitory Concentration,[7]; PYG medium,3 µg/mL
same,Minimum Inhibitory Concentration,[7]; Peptone medium,2 µg/mL
same,Minimum Inhibitory Concentration,[8]; PYG medium,6 µg/mL
same,Minimum Inhibitory Concentration,[8]; Peptone medium,3 µg/mL
same,Minimum Inhibitory Concentration,[9],3 µg/mL
same,Minimum Inhibitory Concentration,Bacillus natto IFO-3009; PYG medium,2 µg/mL
same,Minimum Inhibitory Concentration,Bacillus natto IFO-3009; Peptone medium,1 µg/mL
same,Minimum Inhibitory Concentration,Bacillus cereus MMI-272; PYG medium,9 µg/mL
same,Minimum Inhibitory Concentration,Bacillus cereus MMI-272; Peptone medium,9 µg/mL
same,Minimum Inhibitory Concentration,[10],3 µg/mL
same,Minimum Inhibitory Concentration,[11]; PYG medium,6 µg/mL
same,Minimum Inhibitory Concentration,[11]; Peptone medium,2 µg/mL
same,Minimum Inhibitory Concentration,Escherichia coli IID-861; PYG medium,9 µg/mL
same,Minimum Inhibitory Concentration,Escherichia coli IID-861; Peptone medium,6 µg/mL
same,Minimum Inhibitory Concentration,[12]; PYG medium,12 µg/mL
same,Minimum Inhibitory Concentration,[12]; Peptone medium,6 µg/mL
same,Minimum Inhibitory Concentration,[13]; PYG medium,24 µg/mL
same,Minimum Inhibitory Concentration,[13]; Peptone medium,12 µg/mL
same,Minimum Inhibitory Concentration,[14]; PYG medium,30 µg/mL
same,Minimum Inhibitory Concentration,[14]; Peptone medium,6 µg/mL
same,Minimum Inhibitory Concentration,[15]; PYG medium,> 60 µg/mL
same,Minimum Inhibitory Concentration,[15]; Peptone medium,> 60 µg/mL
same,resistance of the microorganism to the antimicrobial peptide (in words),[15]; conditions of Experiment 12 (up to 60 μg/ml),showed resistance
same,Minimum Inhibitory Concentration,[16]; PYG medium,24 µg/mL
same,Minimum Inhibitory Concentration,[16]; Peptone medium,18 µg/mL
same,resistance of the fungus to the antimicrobial peptide (in words),"[17]; Aspergillus fumigatus JCM-1739, conditions of Experiment 14 (up to 60 μg/ml)",showed resistance
same,Minimum Inhibitory Concentration,[17]; PYG medium,> 60 µg/mL
same,Minimum Inhibitory Concentration,[17]; Peptone medium,> 60 µg/mL
same,Minimum Inhibitory Concentration,Rhizopus oryzae JCM5557; PYG medium,> 60 µg/mL
same,Minimum Inhibitory Concentration,Rhizopus oryzae JCM5557; Peptone medium,> 60 µg/mL
same,resistance of the fungus to the antimicrobial peptide (in words),"Rhizopus oryzae JCM5557; Rhizopus oryzae JCM-5557, conditions of Experiment 14 (up to 60 μg/ml)",showed resistance
same,Live bacteria count in 1 ml after 60 min.,[18],< 100
same,Live bacteria count in 1 ml after 60 min.,[19],100
same,Survival rate,[19]; 60 min,0.04%
same,Live bacteria count in 1 ml after 60 min.,[20],< 100
same,Live bacteria count in 1 ml after 60 min.,[21],< 100
same,Survival rate,[21]; 60 min,< 0.07%
same,Live bacteria count in 1 ml after 60 min.,[22],6.3 × 10^4
same,Live bacteria count in 1 ml after 60 min.,[23],< 100
same,Live bacteria count in 1 ml after 60 min.,[24],1.8 × 10^4
same,Survival rate,[24]; 60 min,3.5%
same,Live bacteria count in 1 ml after 60 min.,[25],1.6 × 10^6
same,Survival rate,[25]; 60 min,31%
same,Live bacteria count in 1 ml after 60 min.,[26],< 100
same,Live bacteria count in 1 ml after 60 min.,[27],100
same,Survival rate,[27]; 60 min,0.04%
same,Live bacteria count in 1 ml after 60 min.,[28],3400
